± gives the standard deviation of the averaged measurements. The list shows a part of the results.
Each sequence was assayed on PfAP2-G AP2 domain (GST-tagged) (assay: gcPBM binding intensity (ln(normalized median fluorescence intensity)); higher = stronger DNA binding).
Summary of the method: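 The binding buffer was 1× PBS containing 1% milk, 0.2 mg/ml BSA, 0.5% salmon testes DNA and 0.03% Triton X-100. In it, GST-tagged P. falciparum DNA-binding domains expressed in E. coli were applied for 1 h to an Agilent 4 × 180k array of primer-extended double-stranded 36-bp intergenic genomic probes plus negative controls. Binding intensity, read with Alexa488 anti-GST antibody and a 488 nm scan, is the highest Masliner-normalised natural-log median intensity across replicate spots of either probe orientation.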

Sequence | gcPBM binding intensity (ln)
TGTATTAATTTGTAATGTACACATATATGTATTATA [XGTACX_site4152] | 11.4 ± 0.9
GGTATAATTCATATAACACACATTTCAATGTTAAAA [CACACA_site2172] | 10 ± 0.29
CTTATATATACATATACACACACACCCATATATATA [CACACA_site8705] | 10.2 ± 0.2
TAAGTAAACTTTCTATGTACATATTTTCAAATATTA [XGTACX_site6260] | 11.2 ± 0.61
TTAACAAAATTTTTAACACACAAAAAAAAAAAAAAA [CACACA_site1828] | 9.73 ± 0.54
ATGTAGACAACATATGAACACACAAAATATTTTTTT [CACACA_site8955] | 10.12 ± 0.064
GATAAATAATAATAAGGTACACATAAAATATTCCTT [XGTACX_site2963] | 11.2 ± 0.69
CCAAAATTTATAAATTGTACATATTTTTAAATTCTT [XGTACX_site833] | 11 ± 0.59
ATAAAAGAATTAAATAATCAAAATGATTATTTTATA [CACACA_negctrl_site466] | 9.32 ± 0.16
AATACATACGGACACACACACACATATATATATATA [CACACA_site5884] | 11.3 ± 0.81
TGTTTAAAAATAATTTGTACATATATTTTATTTCAT [XGTACX_site1272] | 11 ± 0.61
ATAAAGAAATAAAGTTGTACATTATATATATATATA [XGTACX_site7729] | 11.1 ± 0.76
AATAATTTTTTAAACACACACACATATATATATATA [CACACA_site95] | 10.1 ± 0.23
ATTCATTATTCACCTTGTACACAAATGATTATCGTA [XGTACX_site455] | 11.3 ± 0.76
TCTTTTGTTTAACCTACATGCAGAATATAAGTCTTC [TGCATGCA_site99] | 10 ± 0.2
TGACCTTATGTGTTTTGAAGGGGAAAGGAAATGCGC [XGTACX_negctrl_site411] | 10 ± 0.13
TTTGTTCTTTTAATGTGTACATATACACTTGTAATA [XGTACX_site2635] | 11.3 ± 0.78
ATGTATGCAAAAATGGTGCATATTAAATGTATAACA [GTGCAC_site9722] | 10.2 ± 0.17
AAAAAAAAAAGAAACACACACATTTGTCTATAATAT [CACACA_site7063] | 10.04 ± 0.049

Sequence | gcPBM binding intensity (ln)
TAATATAAAAAAGGTACTACACGAAGGAATAAAAAT [XGTACX_site6872] | 11.1 ± 0.64
CAGAAATAGAGATACACACACACATATATTTATGTA [CACACA_site3968] | 9.895 ± 0.021
TATAAATATATGTATGCACACATTTTTTTTGGAAAA [CACACA_site1070] | 10.1 ± 0.18
TATAAAAATAGGATTTGTACATATAAAAAAGGAAAA [XGTACX_site8678] | 10.8 ± 0.51
TATATGCATAATAACTGTACACAAATTGGGGTTGAT [XGTACX_site459] | 11.6 ± 0.63
ATATAAATATATGTATGTACGCATGTATGTATCTAT [XGTACX_site3290] | 11.5 ± 0.95
TATATATATCTGTACACACACACATATAAATAAATA [CACACA_site4405] | 11.4 ± 1
GAGAAATGGGGACACACACACATATTATATATATAT [CACACA_site4943] | 11.5 ± 0.93
AAGCACAAAAAATACACACACAAAAAATAAAAAAAG [CACACA_site1840] | 10.1 ± 0.22
ATTATGTATACATAAACACACATATATATAAAAAAA [CACACA_site262] | 10.1 ± 0.18
ATGTATGTTTGTTATGCACACAAATGCATCTTATTT [CACACA_site8861] | 10.055 ± 0.007
ATAATGAACAATATTATATATAAAATATAATTTATA [GTGCAC_negctrl_site564] | 9.74 ± 0.21
AAATAATTTACTTAATGTACATATATATATATATAT [XGTACX_site8594] | 11.1 ± 0.51
ATATTTATTTGTTAGTGTACATACATATATATATAT [XGTACX_site1347] | 11.6 ± 1
ATTATATATATGTGCACACAAAAGATATATATATAT [CACACA_site5205] | 10.5 ± 0.33
AAAAATAAACAATATATAGTTATATATATATATATA [TGCATGCA_negctrl_site82] | 9.98 ± 0.68
TTTTAATTTATTTATGCACACATATATAATTACACA [CACACA_site8126] | 10.2 ± 0.23
AATTATATACATAAGTGTACATAATATATAAACATA [XGTACX_site793] | 11.1 ± 0.65
TTTTCAATTAATAATACACACATGTATTTATTATTA [CACACA_site5774] | 9.815 ± 0.007

Sequence | gcPBM binding intensity (ln)
TGTTGTAAATTAAAGACATGCACGTGAGAAAATATA [TGCATGCA_site285] | 10.4 ± 0.3
TTATTTATTTTTTATACACACAATTATCATTTTAAG [CACACA_site22] | 10 ± 0.11
TTTTCTATGCTAAACACACTCATTGTTACAAGTTTT [CACACA_site5531] | 10.01 ± 0.021
TATATATATTTTATATGTACGTATGGAACAATATGA [XGTACX_site8167] | 11.4 ± 0.92
ATGTTCATTATATGCACACATATATATAAATGTAAT [CACACA_site2908] | 9.865 ± 0.049
TATCATAAAAAATATACACACAAAGGATATATATAT [CACACA_site1571] | 9.78 ± 0.085
TAAGTTTATTGAAATTGTACAAACATAAATGTAAAA [XGTACX_site162] | 10.9 ± 0.61
TTATATTTTTTTTTTTCACACACATTTATATTGTAT [CACACA_site9025] | 9.95 ± 0.028
TATACTAAGAAGTATTTACACACCAACAAGGCGAAA [CACACA_site8963] | 10.2 ± 0.16
AAATTAAGTATATATTGTACACATAATATGATTGTA [XGTACX_site3083] | 11.2 ± 0.75
TTATTTTCATATAGGTGTACATAAAAATATTCTTAT [XGTACX_site8861] | 11.6 ± 0.82
TTAATTAGAAATCATACACACATATAAATAAATATA [CACACA_site6225] | 9.93 ± 0.15
TGTGCCTATAAATTAACACACAGAAATATATAGAGA [CACACA_site818] | 10.07 ± 0.071
TTATTCTGACAGAATTGTACTAATGTCTTTAAAAAA [XGTACX_site1256] | 10.8 ± 0.55
TATTTGTTTGTTCGGGTGCTTACATATATTCTTATA [GTGCAC_site9972] | 10.4 ± 0.28
AATTATATAATCTTATAACATAATATAATAACATTT [CACACA_negctrl_site187] | 9.48 ± 0.16
AATATAAATAAAAACACACACAATGGTACAGATATA [CACACA_site5930] | 10.9 ± 0.41
AATTTAAATTAGAATTGTACTAGAAAAGGAATATAT [XGTACX_site6162] | 10.9 ± 0.53
AAAAAAAAAAAATAGACCTCCTAAGCAAAAGAAAAA [GTGCAC_negctrl_site634] | 10.2 ± 0.35
